Sequences with one replicate were seen in a single cluster, so their values are uncertain.
Test system: ATP
Assay: switch fluorescence ratio, 500 uM ATP over buffer (Cy3 cluster intensity, sum of 5 cycles each) (fold (ratio)); higher = stronger signal-on switching upon ATP binding; sequences stand for … in TCGTCGGCAGCGTCAGATGTGTATAAGAGACAGTTTTTTTTTTTTTTTTTTTTTTTTT…TC
Conditions: aptamer strand: ATP DNA aptamer (quencher-CACCTGGGGGAGTATTGCGGAGGAAGG + anchor), 100 nM annealed; ATP concentration: 500 uM; one replicate
How it was run: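 For every switch-domain sequence, the fluorescence ratio is the mean of per-cluster values, each being summed target-cycle Cy3 intensity over summed buffer-cycle Cy3 intensity. Clusters outside 100-1000 RFU were excluded. On a modified Illumina MiSeq flow-cell, the Cy3-labelled switching-strand clusters were annealed to 100 nM quencher-labelled ATP aptamer, imaged in selection buffer and then after 15 min with 500 uM ATP at 22 °C. Five such cycles were run, with NaOH stripping and re-annealing between them.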
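Further: ATP exposure 15 min at 22 °C before imaging.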

Sequence	switch fluorescence ratio
ATGGACTAGA	1.05
GAGTGATAAT	1.04
CTGCTAGGAG	0.975
AGGACTGTCG	0.945
ATTTACAGAG	1.06
TAAGAGTGAG	1.05
AATGTCACGA	1.04
CGCTTTCTTC	1.02
GGACTGGACC	1.04
TTTCCCTGAA	0.978
CGGACCGCAC	5.08
ATAACGCGCT	1
ACTGTCTGAC	1.06
GTTGCCGCCA	0.972
TACTACAAGA	1.03
ATCGGCAAAG	1.07
CAGAAAAGTG	1.04
TTATGGTCCT	1.05
AATAGCGGCA	1.02
CCTAGGGCGA	1.04
CGGTCGGCGC	0.996
CGTCATTTAA	1.06
GGCGTTGACG	0.995
TGTCTAATAT	1.03
TGCGCCGGGG	1.03

Sequence	switch fluorescence ratio
GGGGGCCAAT	1.02
GGGGAAGATC	0.995
CCGCATGAAG	2.33
AGCATCCACC	1.19
TCACACCGTT	1.02
ACTTAGGGCC	0.962
ATGTACCTTG	1.08
AAGGGGAAGC	0.961
AGTAACTTTG	1.06
ACCTAAATT	1.06
TAACACGGGC	1.02
ACAGCGACCG	1.11
TTGGCTCCGT	1.03
AGTTGTACCC	0.993
CTCTGAATCA	1.03
CACAGCGAGT	1.07
AACCTTCGTT	1.32
GGTCTATTGG	0.958
ACAGCGATTT	1.04
CATCAAATCA	0.998
CACGACGGAC	1.46
CTTAGAAGGT	0.97
AGTCGGCTAC	2.21
TAGCGTAGGC	1.04
GACGGCAAA	0.967

Sequence	switch fluorescence ratio
ATACTAGGCT	0.948
AACTGTCCGA	1.11
AAGAATCTAA	0.962
CGGACATCTA	1.08
AGATTGGTGG	0.975
CGCCGGCTGT	0.991
CGGAACAGCT	0.949
ACAATGTCGT	1.02
GGACCACAAG	1.04
AGATTACTTT	1.04
CTGGAACCAC	1.09
TGTCGAGTGT	1.01
TCATTGATAT	1.04
TAACGCGCGC	0.99
TGGAGAATGG	0.959
TATGGCTATA	0.992
AGACCTTGAA	0.979
TGGAAAGAGT	1.02
ACTCTACCAA	1.33
ACACGTGTGG	1.05
CGTTCTTGAT	0.944
CCGGTAGCCC	1.93
CCAATCGATT	0.969
CGAACGGTGC	2.04
TGCGAGAAAG	0.981

Sequence	switch fluorescence ratio
ATCTAGAGTG	0.921
TTGGGGTCAC	0.975
GATTGTATGC	0.979
TGTTCTGATA	0.996
CAACATATAT	0.965
TGGAAAGGCT	0.981
CGACGTATT	1.14
ACAAATAGTT	1.02
TACGGTCAAA	1.03
TGCTGTGTGC	0.978
TTGTGCCGGA	1.08
GACTCGTC	1.03
AGTGCTGAAA	0.97
AGTCAAACTA	0.973
CGTGCAATGT	2.3
CTGAAGTGGT	1.05
TGTGGACTGC	0.962
GGGGCGGCCA	0.978
GCTACTAGGT	1.01
GAAGCACTGC	1.42
TAAAGCTGG	1.01
TAACCGTGTT	1.01
GGAAGTTGGC	0.965
CTACTGGCAT	1.05
TGCCCGGCGG	0.946

Source: the supplement of paper PMC10126150
